Results: the supplement of paper PMC10338343
± gives the standard deviation. This is a selection; strong and weak results do not stand in their true shares.

Each sequence was assayed on MIWI (PIWIL1) piRISC loaded with piRNA #1 (30 nt) (assay: pre-steady-state target cleavage rate (min^-1); MIWI and MILI are mouse PIWI proteins and EfPiwi is from a freshwater sponge; tags in brackets are library labels; higher = faster piRNA-guided slicing of the target). Conditions: guide: piRNA #1 5'p-UGAGGUAGUAGGUUGUAUAGUAUCCAGAGG; auxiliary factor: 500 nM mouse GTSF1.
Outline: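 The pre-steady-state cleavage rate was calculated from a burst-and-steady-state fit. Data came from Cleave-'n-Seq, in which […] transcribed, DNA-blocked target RNA library was mixed with 1 nM active affinity-purified piRISC carrying one synthetic guide, with or without 500 nM GTSF1 partner protein, in HEPES–potassium acetate buffer at 33 °C for 0–8 or 0–960 min. Uncleaved targets were sequenced and normalised to depth and to weakly complementary targets, three trials were pooled, and k3 was capped at 0.0001 min^-1.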
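Further: 1 nM active piRISC with 0.1 nM target library at 33 °C single turnover.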

Q: With GGAGACCUAUGAUUACUAACCUACUACCUCA as the sequence, how does the “pre-steady-state target cleavage rate” value read?
A: < 0.0001

Q: With “GGAGACCUAUGAUAUGUACCUACUAGGAGA [g6:g13:cont:t1A]” as the sequence, how does the “pre-steady-state target cleavage rate” value read?
A: < 0.0001

Q: How did the “pre-steady-state target cleavage rate” value turn out when GGAGACGAUACUAUACAACCAACUACGUCA was run?
A: 0.105 ± 0.013

Q: How did the “pre-steady-state target cleavage rate” value turn out when GGAGACCUAUGAUAUGUACCUAGUUCCUCA was run?
A: < 0.0001

Q: How did the “pre-steady-state target cleavage rate” value turn out when GGACUCGAUACUAUACAACCUACUAGCUCA was run?
A: 0.0879 ± 0.017

Q: How did the “pre-steady-state target cleavage rate” value turn out when GGAGAGGUUACAAUACAACCUACUACCUCA was run?
A: 1.09 ± 0.07

Q: Which “pre-steady-state target cleavage rate” value does the source give for GGUCUGGAUUCUAUACAUCCUACUACCUCA here?
A: 1.5 ± 0.1

Q: GGAGUGGAUACUAUACAUCCUUCUACCUCA was tested. Which “pre-steady-state target cleavage rate” value did it give?
A: 0.249 ± 0.017

Q: How did the “pre-steady-state target cleavage rate” value turn out when GGAGAGGAUACUUUUCAACCUACUACCUCA was run?
A: 1.18 ± 0.076

Q: Which “pre-steady-state target cleavage rate” value does the source give for GGACUGCAUACAAUACAACCUACUACCUCA here?
A: 0.783 ± 0.12

Q: GGAGACGAUAGUAUACAACCUACUUCCUCA was tested. Which “pre-steady-state target cleavage rate” value did it give?
A: 0.345 ± 0.048

Q: How did the “pre-steady-state target cleavage rate” value turn out when CCUCUGGAUACUAUACAGCCUACUACCUCA was run?
A: 0.743 ± 0.03

Q: How did the “pre-steady-state target cleavage rate” value turn out when GGAGACCUAACUAUACUACCUAGUACCUCA was run?
A: 0.0189 ± 0.0053

Q: Which “pre-steady-state target cleavage rate” value does the source give for GGAGAGGAUACUAUACAACCUACUAGCCUCA here?
A: 0.675 ± 0.078

Q: With CCUCUGGAUUCUAUACAAGCUACUACCUCA as the sequence, how does the “pre-steady-state target cleavage rate” value read?
A: 1.23 ± 0.051

Q: With GGUCUGGAUAACUAUACAACCUACUACCUCA as the sequence, how does the “pre-steady-state target cleavage rate” value read?
A: 1.17 ± 0.084
